{"source": "paper PMC4336329", "about": "(PLoS ONE, 2015)", "note": "About 14,000 (4.5%) of roughly 310,000 compounds showed an effect of 50% or more. The effect is printed as a negative number. Some of the results follow.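 Also: peak tail current of the secondary pulse compared with the same well before compound.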"}
{"target": "human ether-à-go-go-related gene (hERG) potassium channel (human, UniProt Q12809)", "sequence (Q12809 whole entry, looked up)": "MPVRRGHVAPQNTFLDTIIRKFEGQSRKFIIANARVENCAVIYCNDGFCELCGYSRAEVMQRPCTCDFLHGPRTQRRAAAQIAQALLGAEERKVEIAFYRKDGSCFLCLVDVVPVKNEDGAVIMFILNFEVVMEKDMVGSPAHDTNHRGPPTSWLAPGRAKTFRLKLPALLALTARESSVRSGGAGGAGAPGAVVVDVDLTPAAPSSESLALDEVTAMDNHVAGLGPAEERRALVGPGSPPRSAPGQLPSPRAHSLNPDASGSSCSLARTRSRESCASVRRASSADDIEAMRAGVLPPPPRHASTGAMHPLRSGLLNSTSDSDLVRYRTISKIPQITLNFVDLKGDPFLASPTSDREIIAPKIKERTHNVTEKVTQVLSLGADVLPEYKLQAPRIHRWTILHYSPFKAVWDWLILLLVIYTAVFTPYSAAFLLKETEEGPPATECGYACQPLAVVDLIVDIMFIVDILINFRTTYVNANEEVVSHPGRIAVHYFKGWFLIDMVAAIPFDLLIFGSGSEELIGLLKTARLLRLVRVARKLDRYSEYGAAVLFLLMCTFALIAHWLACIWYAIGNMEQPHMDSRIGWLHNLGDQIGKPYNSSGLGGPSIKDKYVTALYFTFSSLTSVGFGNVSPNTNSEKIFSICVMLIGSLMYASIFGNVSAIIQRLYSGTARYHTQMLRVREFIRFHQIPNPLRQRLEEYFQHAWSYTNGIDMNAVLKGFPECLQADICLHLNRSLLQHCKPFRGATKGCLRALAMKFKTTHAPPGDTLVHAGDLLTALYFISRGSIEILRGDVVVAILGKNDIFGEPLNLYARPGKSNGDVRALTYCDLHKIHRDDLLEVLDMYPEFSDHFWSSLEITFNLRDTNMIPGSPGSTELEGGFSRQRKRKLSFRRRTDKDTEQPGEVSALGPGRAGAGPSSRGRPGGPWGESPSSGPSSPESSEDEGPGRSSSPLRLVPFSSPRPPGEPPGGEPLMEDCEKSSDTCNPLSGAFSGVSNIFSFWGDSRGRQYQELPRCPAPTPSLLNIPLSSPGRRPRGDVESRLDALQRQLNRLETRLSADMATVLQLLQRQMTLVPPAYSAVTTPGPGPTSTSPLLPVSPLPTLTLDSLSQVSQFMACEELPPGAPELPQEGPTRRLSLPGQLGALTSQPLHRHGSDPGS", "test": "primary screen, population patch clamp on CHO cells stably expressing hERG", "units": {"hERG current change (%, negative = inhibition) at 10uM": "%"}}
{"molecule": "Cc1nn(C(=O)CCCn2cc([N+](=O)[O-])cn2)c(C)c1Cl", "hERG current change (%, negative = inhibition) at 10uM": -46.3}
{"molecule": "CN1C(=O)OC(C)(CCc2ccccc2)C1(C)O", "note": "(centres unmarked)", "hERG current change (%, negative = inhibition) at 10uM": 11.5}
{"molecule": "CC(=O)Nc1c(Cl)cnn(-c2ccccc2)c1=O", "hERG current change (%, negative = inhibition) at 10uM": 16.7}
{"molecule": "O=C(O)CN=C(NS(=O)(=O)c1ccc(Cl)cc1)c1ccccc1", "hERG current change (%, negative = inhibition) at 10uM": 13.7}
{"molecule": "CCOc1cccc(/C=C(\\C#N)C(=O)NC2CC2)c1", "hERG current change (%, negative = inhibition) at 10uM": 4.33}
{"molecule": "COc1ccc(N(C(=O)Nc2ccc(Cl)cc2)C2=NCCC2)cc1", "hERG current change (%, negative = inhibition) at 10uM": -5.35}
{"molecule": "O=Cc1cccc(OCc2cccc3ccccc23)c1", "hERG current change (%, negative = inhibition) at 10uM": 5.87}
{"molecule": "S=C(Nc1ccccc1)N1CCN(c2ccccn2)CC1", "hERG current change (%, negative = inhibition) at 10uM": 7.75}
{"molecule": "COc1ccccc1NS(=O)(=O)c1cccc(NC(=O)Nc2cccc(Cl)c2)c1", "hERG current change (%, negative = inhibition) at 10uM": -4.54}
{"molecule": "COc1ccc(CN2CCCCCC2)c(C)c1C", "hERG current change (%, negative = inhibition) at 10uM": -28.3}
{"molecule": "COC(=O)c1ccc(N2CCN(CC(=O)c3ccc(-c4ccccc4)cc3)CC2)c([N+](=O)[O-])c1", "hERG current change (%, negative = inhibition) at 10uM": 8.75}
{"molecule": "O=C(Nc1cccc2ccccc12)NC1CCS(=O)(=O)C1", "note": "(centres unmarked)", "hERG current change (%, negative = inhibition) at 10uM": 21.5}
{"molecule": "Cc1ccc(CS(=O)(=O)CCC(=O)NCCC2=CCCCC2)cc1", "hERG current change (%, negative = inhibition) at 10uM": 19.3}
{"molecule": "COc1ccc(-n2nnnc2Sc2ccc(S(=O)(=O)N3CCOCC3)cn2)cc1", "hERG current change (%, negative = inhibition) at 10uM": -6.54}
{"molecule": "Cc1ccc2oc(C(=O)Nc3nnc(C)s3)c(C)c2c1", "hERG current change (%, negative = inhibition) at 10uM": 1.82}
{"molecule": "O=C(CNC(=O)c1ccccn1)N/N=C/c1ccc2c(c1)OCO2", "hERG current change (%, negative = inhibition) at 10uM": 2.6}
{"molecule": "O=C(CN1C(=O)c2cccnc2Oc2ccc(Cl)cc21)NCCc1ccccc1", "hERG current change (%, negative = inhibition) at 10uM": -8.11}
{"molecule": "Cc1ccc2c(CC(=O)NC3=NCCS3)coc2c1", "hERG current change (%, negative = inhibition) at 10uM": -1.5}
{"molecule": "Cc1cccc(CCNC(=O)c2cccc3c2C(=O)N(C2CCCCC2)C3)c1", "hERG current change (%, negative = inhibition) at 10uM": -28}
{"molecule": "CC(C)CN(CC(C)C)C(=O)CN1c2cccc3cccc(c23)S1(=O)=O", "hERG current change (%, negative = inhibition) at 10uM": 18.1}
{"molecule": "Cc1ccc2c(c1)Cc1nc3ccccc3nc1-2", "hERG current change (%, negative = inhibition) at 10uM": -11.3}
{"molecule": "Oc1ccccc1N=Cc1sc2ccccc2c1Cl", "hERG current change (%, negative = inhibition) at 10uM": 2.23}
{"molecule": "O=C(C1=C[C@@H](c2csc3ccccc23)C[C@@H](OCc2ccc(CO)cc2)O1)N1CCN(Cc2ccccc2)CC1", "hERG current change (%, negative = inhibition) at 10uM": -35.3}
{"molecule": "Cc1csc(CNC(=O)CC2C(=O)NCCN2Cc2ccc(F)cc2Cl)n1", "note": "(centres unmarked)", "hERG current change (%, negative = inhibition) at 10uM": -6.47}
{"molecule": "COCCCNc1ncnc2ccc(C)cc12", "hERG current change (%, negative = inhibition) at 10uM": -6.06}
{"molecule": "COc1ccc(Nc2oc(-c3ccc(Cl)cc3)nc2C#N)cc1", "hERG current change (%, negative = inhibition) at 10uM": 9.76}
